Data from PMC4336329 (PLoS ONE, 2015).
The whole screen tested about 310,000 compounds, of which about 2,200 (0.71%) showed an effect of 50% or more. Effects have a minus sign here. The list shows a part of the results.

What follows are molecules tested against human ether-à-go-go-related gene (hERG) potassium channel (human, UniProt Q12809) (assay: primary screen, population patch clamp on CHO cells stably expressing hERG).
Chain of human ether-à-go-go-related gene (hERG) potassium channel (Q12809 whole entry, looked up): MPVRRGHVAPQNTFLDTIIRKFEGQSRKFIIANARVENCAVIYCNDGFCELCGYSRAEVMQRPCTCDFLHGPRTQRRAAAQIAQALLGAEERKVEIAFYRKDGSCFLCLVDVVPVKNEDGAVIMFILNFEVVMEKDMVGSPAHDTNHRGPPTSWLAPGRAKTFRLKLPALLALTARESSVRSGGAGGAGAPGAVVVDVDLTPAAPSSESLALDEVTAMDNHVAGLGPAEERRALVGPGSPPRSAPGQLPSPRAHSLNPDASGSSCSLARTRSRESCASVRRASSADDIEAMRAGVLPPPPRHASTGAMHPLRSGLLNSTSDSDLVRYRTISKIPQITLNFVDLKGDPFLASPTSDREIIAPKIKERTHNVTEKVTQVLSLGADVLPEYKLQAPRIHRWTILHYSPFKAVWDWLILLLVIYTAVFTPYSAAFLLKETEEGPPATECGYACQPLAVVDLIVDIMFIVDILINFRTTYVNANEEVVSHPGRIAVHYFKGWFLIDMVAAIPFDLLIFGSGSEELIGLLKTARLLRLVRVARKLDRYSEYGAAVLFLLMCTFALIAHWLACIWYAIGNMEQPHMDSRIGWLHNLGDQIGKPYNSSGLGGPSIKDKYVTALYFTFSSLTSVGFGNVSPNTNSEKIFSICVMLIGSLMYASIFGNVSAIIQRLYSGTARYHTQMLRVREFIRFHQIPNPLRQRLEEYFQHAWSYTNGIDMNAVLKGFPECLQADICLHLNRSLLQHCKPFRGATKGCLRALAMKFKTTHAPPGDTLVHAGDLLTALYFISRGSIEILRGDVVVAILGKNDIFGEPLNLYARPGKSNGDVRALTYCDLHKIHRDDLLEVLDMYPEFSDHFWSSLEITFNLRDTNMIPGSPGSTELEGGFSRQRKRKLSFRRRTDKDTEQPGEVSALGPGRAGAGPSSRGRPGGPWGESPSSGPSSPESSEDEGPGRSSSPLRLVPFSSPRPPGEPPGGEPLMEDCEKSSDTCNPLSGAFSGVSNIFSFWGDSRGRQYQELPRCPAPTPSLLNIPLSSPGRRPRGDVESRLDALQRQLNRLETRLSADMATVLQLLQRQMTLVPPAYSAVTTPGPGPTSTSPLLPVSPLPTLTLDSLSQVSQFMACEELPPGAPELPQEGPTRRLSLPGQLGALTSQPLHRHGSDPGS

Going from `O=C(CSc1ccc([N+](=O)[O-])cn1)Nc1ccc2c(c1)OCO2` to `O=C(CSC1=NCCS1)Nc1ccc(F)cc1`, the “hERG current change (%, negative = inhibition) at 1uM” value falls from 14.7% to 7.04%.

First: Cc1ccc(NC(=O)C(=O)NCC2CCCO2)cc1 (stereo not shown)
Second: COc1ccc(NC(=O)CSCc2ccc(C)cc2)cc1
The “hERG current change (%, negative = inhibition) at 1uM” value of the first is higher: 6.81% for the first, -1.82% for the second.

Compared with `CSc1ncccc1C(=O)NCc1ccccc1Cl`, `COC(=O)c1ccccc1NC(=O)Nc1ccc(Cl)cn1` is lower in “hERG current change (%, negative = inhibition) at 1uM” value: 0.0203% for the first, -1.39% for the second.

Going from `CCOC(=O)c1c(NC(=O)Cn2cnc([N+](=O)[O-])n2)sc2c1CCCC2` to `CCCc1nc2sc3c(c2c(=O)n1NC(=O)CCC(=O)OC)CCCC3`, the “hERG current change (%, negative = inhibition) at 1uM” value rises from 1.33% to 11%.

Compared with `COc1ccc(OC)c(S(=O)(=O)N(C)CC(=O)N2CCN(c3ccccc3)CC2)c1`, `COc1ccc(-c2nn(-c3ccccc3)cc2C(=O)N2CCOCC2)cc1` is higher in “hERG current change (%, negative = inhibition) at 1uM” value: 2.6% for the first, 8.83% for the second.

First: O=C(COC(=O)c1ccc(O)cc1O)NC1CC1
Second: CN(CC(=O)NC1CC1)S(=O)(=O)c1cc(Cl)ccc1Cl
The “hERG current change (%, negative = inhibition) at 1uM” value of the first is lower: 7.81% for the first, 12.6% for the second.

Going from `Cc1nc(SCC(=O)c2cc3ccccc3oc2=O)c(C#N)c(-c2cccs2)c1C(=O)Nc1ccccc1` to `COc1ccc2nc(Nc3nc(CSc4nnnn4-c4ccccc4)cc(=O)[nH]3)nc(C)c2c1`, the “hERG current change (%, negative = inhibition) at 1uM” value falls from 8.51% to 5.06%.

First: COc1ccc(CN(C)CC(=O)Nc2cccc(S(N)(=O)=O)c2)c(OC)c1OC
Second: COc1ccccc1N(CC(=O)Nc1cccc(C(F)(F)F)c1)S(C)(=O)=O
The “hERG current change (%, negative = inhibition) at 1uM” value of the first is higher: 14.6% for the first, 12% for the second.

First: COC(=O)c1ccc(C23CC4(C2)[C@H](CN(C)[C@@H]4c2ccccc2)C3c2ccc(Cl)nc2)cc1 (stereo partly shown)
Second: COc1ccc2cc(C(=O)C3CCCN(Cc4ccccn4)C3)ccc2c1 (stereo not shown)
The “hERG current change (%, negative = inhibition) at 1uM” value of the first is higher: 10.1% for the first, -14.6% for the second.

Going from `Cc1cccc(OCc2n(CC(=O)OC3CC(C)CCC3C(C)C)c3ccccc3[n+]2C)c1.[Cl-]` (stereo not shown) to `O=C(CS(=O)c1cccc(Cl)c1)Nc1ccccc1Cl` (stereo not shown), the “hERG current change (%, negative = inhibition) at 1uM” value rises from -12.2% to 4.93%.

Compared with `CC(=O)NCCNC(=O)c1ccc(CSc2nc3ccccc3s2)cc1`, `CN(C)CCCN(C(=O)c1sc2ccccc2c1Cl)c1nc2ccc(F)cc2s1.Cl` is lower in “hERG current change (%, negative = inhibition) at 1uM” value: 13.5% for the first, -1.97% for the second.

Going from `O=c1cc(C(Cl)(Cl)Cl)oc2c1ccc1ccccc12` to `Cc1ccc(NCN2C(=O)C(=O)c3ccccc32)nc1`, the “hERG current change (%, negative = inhibition) at 1uM” value falls from 12.4% to 0.944%.

First: CCc1ccccc1N1CN(Cc2ccco2)CNC1=S
Second: CCc1ccccc1NS(=O)(=O)Cc1ccccc1
The “hERG current change (%, negative = inhibition) at 1uM” value of the first is higher: 12.4% for the first, 7.82% for the second.

Compared with `Cn1c(=O)c2ncn(CC(=O)NCCOCc3ccccc3Cl)c2n(C)c1=O`, `Cc1cccc(C)c1NC(=O)C(NC=O)c1ccc(Cl)cc1` (stereo not shown) is lower in “hERG current change (%, negative = inhibition) at 1uM” value: 9.02% for the first, 0.273% for the second.

Going from `CCCC(C)C1(CC)C(=O)NC(=Nc2ccc(F)cc2)NC1=O` (stereo not shown) to `O=c1nc(N(c2ccccc2)c2ccccc2)[nH]c(=O)[nH]1`, the “hERG current change (%, negative = inhibition) at 1uM” value falls from 10.2% to -7.77%.

Compared with `CC(=O)OC1CC2(C)C(=O)CCC2C2CCc3cc(O)ccc3C12` (stereo not shown), `CC(C)N1CC(C(=O)Nc2ccc(S(=O)(=O)N3CCCCC3)cc2)CC1=O` (stereo not shown) is higher in “hERG current change (%, negative = inhibition) at 1uM” value: 7.05% for the first, 16.3% for the second.

First: CSc1nsc(/C=C/Nc2ccc(O)cc2C)c1C#N
Second: Cc1ccc(O)c(C(=O)c2cnc3c(c2)c(-c2ccc(F)cc2)c(C#N)c(=O)n3C)c1
The “hERG current change (%, negative = inhibition) at 1uM” value of the first is lower: -4.27% for the first, 8.29% for the second.

Going from `O=C(/C=C/c1cccc(Cl)c1)NNC(=O)c1ccncc1` to `O=C(Nc1cnccn1)c1ccc(F)cc1Cl`, the “hERG current change (%, negative = inhibition) at 1uM” value falls from 6.95% to -5.32%.

First: Cc1ccc(S(=O)(=O)Nc2nc3ccccc3nc2N2CCc3ccccc3C2)cc1
Second: O=C(COC(=O)CCc1ccccc1)Nc1cc(S(=O)(=O)N2CCOCC2)ccc1N1CCCC1
The “hERG current change (%, negative = inhibition) at 1uM” value of the first is lower: 8.57% for the first, 22% for the second.

Going from `CCOC(=O)C1(CC/C(C)=N\NC(N)=O)CC(C)OC1=O` (stereo not shown) to `COc1ccc(C(=O)Nc2cccc(/C(C)=N/NC(=O)c3ccc([N+](=O)[O-])cc3)c2)cc1OC`, the “hERG current change (%, negative = inhibition) at 1uM” value rises from 0.102% to 7.54%.

Going from `O=C(C1CCN(Cc2ccc(Cl)cc2)CC1)N1CCN(Cc2ccc3c(c2)OCO3)CC1` to `O=C(c1ccc2c(c1)OCCO2)N1CCN(c2ccccn2)CC1`, the “hERG current change (%, negative = inhibition) at 1uM” value rises from -11.2% to 15.2%.

`Cc1cc(/C=N/NC(N)=S)c(C)n1-c1ccc(Cl)cc1` was tested, and the “hERG current change (%, negative = inhibition) at 1uM” value was 1.13%.
